# Source: PubChem BioAssay (Tox21)
# “And” between values parts separate entries of the source, which are not always exact repeats. Equal values may be shown once. The shares of active, inactive and inconclusive entries below differ from those in the screen. For some assays here: Where the call is inconclusive, the potency comes from a doubtful curve fit. The source made the active and inactive calls. Unless noted, calls come from the whole dose curve.
# Key:
# [1] = qHTS assay to identify small molecule agonists of the farnesoid-X-receptor (FXR) signaling pathway - cell viability counter screen (AID 743218; active = well fitted curve in the direction sought with a large enough effect in the repeat runs; inconclusive = weak or mixed curves; inactive = no such curve, though single readings can be large; an effect the other way counts as inactive or inconclusive; note: potency is the fitted concentration of half-maximal effect; nearly all actives have a fitted effect of over 45% in size); settings: FXR-bla HEK293T viability, CellTiter-Glo luminescence, 16 h; viability change, negative = cytotoxic: at 62.6 µM (top of the series) unless noted
# Procedure, shortened: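 Luminescence from CellTiter-Glo, read after 30 min at RT, reports viability of GeneBLAzer FXR-UAS-bla HEK 293T cells treated 16 h with compounds in the wells used for the beta-lactamase reporter.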
# [2] = qHTS assay to identify small molecule agonists of the endoplasmic reticulum stress response signaling pathway - cell viability counter screen (AID 1159517); note: nearly all actives have a fitted effect of over 50% in size; note: potency is the fitted concentration of half-maximal effect;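 for activity change, negative = cytotoxicity: HeLa cells carrying an ER stress response element beta-lactamase reporter; % is set by controls: 0 for no effect and ±100 for the full control effect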
# Procedure, shortened: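 ESRE-bla HeLa cells (1,500/well) were plated overnight at 37 C and exposed to compounds for 5 hr. After the 2 hr beta-lactamase substrate read, CellTiter-Glo went into the same wells, and luminescence was read after 30 min at room temperature.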
# [3] = biological target: Nuclear receptor ROR-gamma (Homo sapiens) (UniProt P51449); experiment: qHTS assay to identify small molecule antagonists of the retinoid-related orphan receptor gamma (ROR-gamma) signaling pathway (AID 1159521; active = well fitted curve in the direction sought with a large enough effect in the repeat runs; inconclusive = weak or mixed curves; inactive = no such curve, though single readings can be large; an effect the other way counts as inactive or inconclusive; note: nearly all actives have a fitted effect of over 50% in size; note: potency is the fitted concentration of half-maximal effect)
# Procedure, shortened: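 CHO Tet-on RORγ, RORE-luc reporter. Cpd 2 h pre-incubation, then dox hyclate 1 uM final, 16 h, 37 C/5% CO2. ONE-Glo luminescence; decrease = antagonist.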
# [4] = qHTS assay to identify small molecule agonists of the RXR signaling pathway - cell viability counter screen (AID 1159529; active = well fitted curve in the direction sought with a large enough effect in the repeat runs; inconclusive = weak or mixed curves; inactive = no such curve, though single readings can be large; an effect the other way counts as inactive or inconclusive; note: potency is the fitted concentration of half-maximal effect; nearly all actives have a fitted effect of over 50% in size)
# Procedure, shortened: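 HEK 293T RXRa-bla cells, 2% CS-FBS; 5 h settle; cpd 16 h 37 C, 5% CO2; CellTiter-Glo 30 min RT, luminescence. Tetraoctyl ammonium bromide as positive control.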
# [5] = biological target: Peroxisome proliferator-activated receptor delta (Homo sapiens) (UniProt Q03181); experiment: qHTS assay to identify small molecule agonists of the peroxisome proliferator-activated receptor delta (PPARd) signaling pathway (AID 743212); settings: HEK293H PPARd-UAS-bla, beta-lactamase FRET ratio, 17 h; activation: at 62.6 µM (top of the series) unless noted; note: potency is the fitted concentration of half-maximal effect; for activation: % is set by controls: 0 for no effect and ±100 for the full control effect
# Procedure, shortened: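 Beta-lactamase reporter readout: a ratiometric FRET signal from the LiveBLAzer substrate after 2 h at room temperature. Compound exposure at 37 °C in PPARδ-bla HEK293H cells driven by an upstream activator sequence.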
# [6] = biological target: Peroxisome proliferator-activated receptor delta (Homo sapiens) (UniProt Q03181); experiment: qHTS assay to identify small molecule antagonists of the peroxisome proliferator-activated receptor delta (PPARd) signaling pathway (AID 743215; active = well fitted inhibition curve with a large enough effect in the signal ratio in the repeat runs, not every such curve was filed as active; inconclusive = weak or mixed curves, or effect the other way; inactive = no such curve, though single readings can be large or run the other way; the % refers to the signal ratio;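 note: cells stimulated with agonist L165041 at 300 nM final during compound exposure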; note: potency is the fitted concentration of half-maximal effect); settings: HEK293H PPARd-UAS-bla, beta-lactamase FRET ratio, antagonist, 17 h; ratio activity, negative = inhibition: at 62 µM (top of the series) unless noted
# Procedure, shortened: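 HEK293H GeneBLAzer PPARd UAS-bla reporter cells; cpd + L165041 300 nM final, 17 h 37 C; LiveBLAzer B/G FRET substrate 2 h RT; fluorescence intensity read-out. Antagonist mode.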
# [7] = biological target: Vitamin D3 receptor (Homo sapiens) (UniProt P11473); experiment: qHTS assay to identify small molecule antagonists of the vitamin D receptor (VDR) signaling pathway (AID 743223; active = well fitted inhibition curve with a large enough effect in the signal ratio in the repeat runs, not every such curve was filed as active; inconclusive = weak or mixed curves, or effect the other way; inactive = no such curve, though single readings can be large or run the other way; the % refers to the signal ratio; note: potency is the fitted concentration of half-maximal effect); settings: VDR-UAS-bla HEK293T, beta-lactamase FRET ratio, 16 h
# Procedure, shortened: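 Antagonist mode uses 1alpha,25-dihydroxyvitamin D3 at 3 nM final as stimulus. VDR-bla cells receive compounds in DMSO, incubate 16 h at 37C, then a beta-lactamase FRET substrate for 2 h at room temperature before fluorescence measurement.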
# [8] = qHTS assay to identify small molecule agonists of the AP-1 signaling pathway - cell viability counter screen (AID 1159525); note: nearly all actives have a fitted effect of over 55% in size; note: potency is the fitted concentration of half-maximal effect
# Procedure, shortened: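 Intracellular ATP by Cell Titer Glo luminescence (30 min, RT) in the same ME-180 AP-1-bla wells after the 5 h compound exposure at 37 °C. Normalised to tetra n-octyl ammonium bromide and DMSO controls.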
# [9] = biological target: Retinoic acid receptor RXR-alpha (Homo sapiens) (UniProt P19793); experiment: qHTS assay to identify small molecule agonists of the RXR signaling pathway (AID 1159527); settings: HEK293T RXRa-UAS-bla, beta-lactamase ratio, 16 h; activation: at 76.8 µM (top of the series) unless noted; note: nearly all actives have a fitted effect of over 35% in size; note: potency is the fitted concentration of half-maximal effect
# Procedure, shortened: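 Read-out: beta-lactamase FRET ratio (405 nm excitation, 460 and 530 nm emission) after 2 hr substrate loading at room temperature. Cells were RXR-alpha-UAS-bla HEK 293T treated with compounds for 16 hr in 2% charcoal-stripped FBS medium.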
# [10] = biological target: Vitamin D3 receptor (Homo sapiens) (UniProt P11473); experiment: qHTS assay to identify small molecule agonists of the vitamin D receptor (VDR) signaling pathway (AID 743222); settings: HEK293T VDR-UAS-bla, beta-lactamase FRET ratio, 16 h; activation: at 63.5 µM (top of the series) unless noted; note: potency is the fitted concentration of half-maximal effect
# Procedure, shortened: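 Beta-lactamase reporter readout (LiveBLAzer B/G FRET, 2 h RT) in VDR-bla cells after 16 h compound treatment at 37C, 5% CO2; cells pre-incubated 4 h before pin transfer of DMSO solutions.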
# [11] = biological target: Bile acid receptor (Homo sapiens) (UniProt Q96RI1); experiment: qHTS assay to identify small molecule agonists of the farnesoid-X-receptor (FXR) signaling pathway (AID 743220; active = well fitted activation curve with a large enough effect in the signal ratio in the repeat runs, not every such curve was filed as active; inconclusive = weak or mixed curves, or effect the other way; the % refers to the signal ratio; note: % is set by controls: 0 for no effect and ±100 for the full control effect); settings: HEK293T FXR-UAS-bla, beta-lactamase FRET ratio, 16 h; activation: at 62.6 µM (top of the series) unless noted
# Procedure, shortened: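 FXR-UAS-bla HEK 293T cells carrying a UAS-driven beta-lactamase reporter were plated for 5 h at 37C/5% CO2, then exposed to DMSO-dissolved Tox21 10K compounds for 16 h at 37C. A LiveBLAzer B/G FRET substrate was loaded for 2 h at room temperature before fluorescence reading.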
# [12] = qHTS assay to identify small molecule antagonists of the retinoid acid receptor (RAR) signaling pathway - cell viability counter screen (AID 1159551; active = well fitted curve in the direction sought with a large enough effect in the repeat runs; inconclusive = weak or mixed curves; inactive = no such curve, though single readings can be large; an effect the other way counts as inactive or inconclusive; note: % is set by controls: 0 for no effect and ±100 for the full control effect; nearly all actives have a fitted effect of over 35% in size)
# Procedure, shortened: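 C3RL4 RARE-luciferase line; cpds + retinol 1 uM final, 6 h, 37 C/5% CO2; CellTiter-Glo ATP luminescence, 30 min RT.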
# [13] = qHTS assay to identify small molecule antagonists of the peroxisome proliferator-activated receptor delta (PPARd) signaling pathway - cell viability counter screen (AID 743213; active = well fitted curve in the direction sought with a large enough effect in the repeat runs; inconclusive = weak or mixed curves; inactive = no such curve, though single readings can be large; an effect the other way counts as inactive or inconclusive; note: nearly all actives have a fitted effect of over 50% in size; note: potency is the fitted concentration of half-maximal effect); settings: PPARd-bla HEK293H viability, CellTiter-Glo luminescence, 17 h; viability change, negative = cytotoxic: at 62 µM (top of the series) unless noted
# Procedure, shortened: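 CellTiter-Glo was added to PPARd-bla HEK293H wells following 17 h compound treatment in the presence of 300 nM L165041. Luminescence was recorded after 30 min at room temperature.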
# [14] = biological target: Bile acid receptor (Homo sapiens) (UniProt Q96RI1); experiment: qHTS assay to identify small molecule antagonists of the farnesoid-X-receptor (FXR) signaling pathway (AID 743217; active = well fitted inhibition curve with a large enough effect in the signal ratio in the repeat runs, not every such curve was filed as active; inconclusive = weak or mixed curves, or effect the other way; inactive = no such curve, though single readings can be large or run the other way; the % refers to the signal ratio; note: % is set by controls: 0 for no effect and ±100 for the full control effect); settings: HEK293T FXR-UAS-bla, beta-lactamase ratio, CDCA-stimulated, 16 h; activity change, negative = inhibition: at 62.6 µM (top of the series) unless noted
# Procedure, shortened: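 Read-out: beta-lactamase FRET fluorescence (LiveBLAzer B/G substrate, 2 h, room temperature) in GeneBLAzer FXR-UAS-bla HEK 293T cells. Compounds were co-dosed with 50 uM chenodeoxycholic acid (final) and incubated 16 h at 37 °C.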
# [15] = qHTS assay to identify small molecule antagonists of the vitamin D receptor (VDR) signaling pathway - cell viability counter screen (AID 743225; active = well fitted curve in the direction sought with a large enough effect in the repeat runs; inconclusive = weak or mixed curves; inactive = no such curve, though single readings can be large; an effect the other way counts as inactive or inconclusive); settings: VDR-bla HEK293T viability, CellTiter-Glo luminescence, 16 h; viability change, negative = cytotoxic: at 61 µM (top of the series) unless noted
# Procedure, shortened: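 Read-out: CellTiter-Glo luminescence measured 30 min after reagent addition at room temperature. Cells were VDR-bla HEK 293T exposed 16 h at 37C, 5% CO2, to compound with 3 nM final calcitriol agonist.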
# [16] = qHTS assay to identify small molecule antagonists of the farnesoid-X-receptor (FXR) signaling pathway - cell viability counter screen (AID 743221; active = well fitted cell-killing curve with a large enough effect in the repeat runs, not every such curve was filed as active; inconclusive = weak or mixed curves, or effect the other way; inactive = no such curve, though single readings can be large or run the other way); settings: FXR-bla HEK293T viability, CellTiter-Glo luminescence, 16 h; activity change, negative = cytotoxicity: at 62.6 µM (top of the series)
# Procedure, shortened: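 Luminescence from CellTiter-Glo measures cytotoxicity in GeneBLAzer FXR-UAS-bla HEK 293T cells. Cells were exposed to compounds with 50 uM chenodeoxycholic acid (final) for 16 h at 37 C, in wells also used for the reporter readout.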
# [17] = qHTS assay to identify small molecule agonists of the vitamin D receptor (VDR) signaling pathway - cell viability counter screen (AID 743224; active = well fitted curve in the direction sought with a large enough effect in the repeat runs; inconclusive = weak or mixed curves; inactive = no such curve, though single readings can be large; an effect the other way counts as inactive or inconclusive); settings: VDR-bla HEK293T viability, CellTiter-Glo luminescence, 16 h; activity change, negative = cytotoxicity: at 62.6 µM (top of the series)
# Procedure, shortened: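 Cytotoxicity counter screen: VDR-bla cells, 16 h compound exposure at 37C, 5% CO2; CellTiter-Glo luminescence, 30 min RT, same wells as bla read.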
# [18] = qHTS assay to identify small molecule agonists of the AP-1 signaling pathway (AID 1159526); settings: ME-180 (cervical carcinoma) AP-1-bla reporter, beta-lactamase FRET ratio, 5 h; activation: at 76.8 µM (top of the series) unless noted; note: potency is the fitted concentration of half-maximal effect
# [19] = activity change, negative = inhibition: at 61 µM (top of the series) unless noted
# Tags give direction and shape of the fitted curve or compound fluorescence and quenching.
# Sequence of UniProt Q03181 (Q03181 whole entry, looked up): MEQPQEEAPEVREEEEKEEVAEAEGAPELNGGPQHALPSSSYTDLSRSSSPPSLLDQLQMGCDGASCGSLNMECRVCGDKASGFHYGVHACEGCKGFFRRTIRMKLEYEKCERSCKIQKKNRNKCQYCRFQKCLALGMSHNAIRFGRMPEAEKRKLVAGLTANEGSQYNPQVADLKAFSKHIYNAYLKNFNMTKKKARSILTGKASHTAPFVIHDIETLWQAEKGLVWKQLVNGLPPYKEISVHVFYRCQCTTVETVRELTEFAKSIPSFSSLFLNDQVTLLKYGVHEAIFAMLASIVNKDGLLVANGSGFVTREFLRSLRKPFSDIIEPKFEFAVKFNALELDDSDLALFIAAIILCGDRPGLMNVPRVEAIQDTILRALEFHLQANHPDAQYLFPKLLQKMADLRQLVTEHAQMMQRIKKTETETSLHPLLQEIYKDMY
# Sequence of UniProt P11473 (P11473 whole entry, looked up): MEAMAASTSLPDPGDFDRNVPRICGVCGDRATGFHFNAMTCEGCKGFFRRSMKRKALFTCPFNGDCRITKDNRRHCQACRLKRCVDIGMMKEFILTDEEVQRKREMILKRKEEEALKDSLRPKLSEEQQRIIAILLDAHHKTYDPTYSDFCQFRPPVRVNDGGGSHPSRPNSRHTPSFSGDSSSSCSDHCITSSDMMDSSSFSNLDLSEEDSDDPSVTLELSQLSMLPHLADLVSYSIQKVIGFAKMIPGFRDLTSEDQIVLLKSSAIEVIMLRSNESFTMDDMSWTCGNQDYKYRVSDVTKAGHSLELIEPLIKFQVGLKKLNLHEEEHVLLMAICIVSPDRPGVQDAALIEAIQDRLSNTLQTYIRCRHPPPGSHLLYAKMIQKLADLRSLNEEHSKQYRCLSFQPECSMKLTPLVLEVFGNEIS
# Sequence of UniProt Q96RI1 (Q96RI1 whole entry, looked up): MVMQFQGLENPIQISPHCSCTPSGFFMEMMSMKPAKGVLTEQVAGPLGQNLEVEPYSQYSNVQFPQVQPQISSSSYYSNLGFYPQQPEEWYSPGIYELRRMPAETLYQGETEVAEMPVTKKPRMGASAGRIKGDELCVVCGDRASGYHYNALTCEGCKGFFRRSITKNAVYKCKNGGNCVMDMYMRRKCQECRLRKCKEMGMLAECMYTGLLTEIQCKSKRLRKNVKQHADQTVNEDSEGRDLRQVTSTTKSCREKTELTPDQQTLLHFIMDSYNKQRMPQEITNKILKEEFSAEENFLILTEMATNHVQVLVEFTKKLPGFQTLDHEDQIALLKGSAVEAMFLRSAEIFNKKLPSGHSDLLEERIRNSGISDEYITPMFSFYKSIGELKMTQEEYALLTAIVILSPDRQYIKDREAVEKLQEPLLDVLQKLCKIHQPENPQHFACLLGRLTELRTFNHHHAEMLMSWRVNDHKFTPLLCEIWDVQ
# Sequence of UniProt P19793 (P19793 whole entry, looked up): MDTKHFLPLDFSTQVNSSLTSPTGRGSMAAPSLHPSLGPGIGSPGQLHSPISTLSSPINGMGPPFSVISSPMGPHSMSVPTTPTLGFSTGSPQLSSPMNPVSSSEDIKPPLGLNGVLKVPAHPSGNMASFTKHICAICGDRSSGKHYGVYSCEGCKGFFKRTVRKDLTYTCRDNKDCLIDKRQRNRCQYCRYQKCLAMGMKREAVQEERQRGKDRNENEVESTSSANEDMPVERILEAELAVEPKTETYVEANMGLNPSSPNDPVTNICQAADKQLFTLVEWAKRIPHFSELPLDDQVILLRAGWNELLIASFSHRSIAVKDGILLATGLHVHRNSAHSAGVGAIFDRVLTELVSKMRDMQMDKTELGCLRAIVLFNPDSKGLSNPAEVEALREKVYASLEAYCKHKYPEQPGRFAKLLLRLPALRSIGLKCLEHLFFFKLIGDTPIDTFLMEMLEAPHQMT
smiles,measurement,setting,value
O=[N+]([O-])c1cccc(S(=O)(=O)O)c1,Potency,[1],"inconclusive: 0.157 µM [rising, full curve, poor fit]"
same,Potency,[2],inactive
same,Potency,[3],"inconclusive: 62.1 µM [inhibitor, partial curve, poor fit]"
same,Potency,[4],"inconclusive: 6.26 µM [cytotoxic, full curve]"
O=S(=O)(O)c1ccc(O)c2ncccc12,activation,[5],inconclusive: -1.4%
same,Potency,[6],"inconclusive: 0.0034 µM [rising, full curve, poor fit]"
same,Potency,[1],"inconclusive: 54.4 µM [cytotoxic, partial curve, poor fit]"
same,Potency,[7]; [19],"inconclusive: 38.5 µM [rising, partial curve, poor fit]"
same,Potency,[2],inactive
same,Potency,[8],inactive
same,Potency,[9],"inconclusive: 19.3 µM [activator, partial curve]"
Nc1cc(-c2ccncc2)c[nH]c1=O,Potency,[5],"inconclusive: 29.8 µM [rising, single point]"
same,Potency,[1],"inconclusive: 0.0841 µM [rising, partial curve, poor fit]"
same,activation,[10],inconclusive: -5.57%
same,Potency,[7]; [19],"inconclusive: 0.0155 µM [fluorescent, full curve, poor fit]"
same,"activity change, negative = inhibition",[7]; [19],inconclusive: 14.5%
same,Potency,[2],"inconclusive: 0.0756 µM [cytotoxic, single point]"
same,Potency,[8],"inconclusive: 12.3 µM [rising, partial curve, poor fit]"
CCN(CC)CCNC(=O)c1ccc(NC(C)=O)cc1,Potency,[11],inactive
same,"activity change, negative = inhibition",[7]; [19],inconclusive: 10.1%
same,Potency,[2],inconclusive: 0.0007 µM [cytotoxic]
same,Potency,[8],inactive
same,Potency,[12],inactive
O=C(O)c1cccc(C(F)(F)F)c1,"activity change, negative = inhibition",[7]; [19],inconclusive: -10.5%
same,Potency,[2],"inconclusive: 0.174 µM [cytotoxic, full curve, poor fit]"
same,Potency,[3],"inconclusive: 24.3 µM [inhibitor, single point]"
same,Potency,[9],"inconclusive: 15.5 µM [activator, full curve, poor fit]"
CN1C[C@@H]2C[C@H]1CN2c1cc2c(cc1F)c(=O)c(C(=O)O)cn2C1CC1,Potency,[13],inactive
same,Potency,[2],inactive
same,"activity change, negative = inhibition",[3],inactive: 4.47% [at 19 µM]
O=C(Nc1ccc(C(=O)O)c(O)c1)c1ccccc1,Potency,[2],"inconclusive: 1.51 µM [cytotoxic, single point]"
same,Potency,[8],inactive
CCNc1cc(O)ccc1C,Potency,[13],inactive
same,Potency,[14],inactive
same,Potency,[7]; [19],"inconclusive: 12.2 µM [fluorescent, partial curve, poor fit]"
same,Potency,[2],inactive
same,Potency,[3],"inconclusive: 0.958 µM [inhibitor, single point]"
CC(C)N(C)C,Potency,[13],inactive
same,activation,[10],inconclusive: 7.93%
same,Potency,[15],"inconclusive: 24.4 µM [rising, partial curve, poor fit]"
same,Potency,[2],"inconclusive: 0.0274 µM [rising, full curve, poor fit]"
same,Potency,[3],"inconclusive: 0.0859 µM [inhibitor, full curve, poor fit]"
CCOC(=O)c1ccc(C2CCC(NC[C@H](O)COc3ccc(O)c(NS(C)(=O)=O)c3)CC2)cc1 (stereo partly drawn),Potency,[13],"inconclusive: 45.2 µM [cytotoxic, partial curve, poor fit]"
same,"ratio activity, negative = inhibition",[6],inconclusive: -49.7% [inhibitor]
same,"activity change, negative = inhibition",[14],inconclusive: -24.7%
same,Potency,[1],active: 35.9 µM
same,Potency,[16],"inconclusive: 12.7 µM [falling, full curve, poor fit]"
same,Potency,[10],"inconclusive: 18 µM [rising, partial curve]"
same,Potency,[7]; [19],"inconclusive: 0.0254 µM [fluorescent, full curve, poor fit]"
same,Potency,[17],active: 40.3 µM
same,Potency,[15],active: 35.9 µM
same,Potency,[2],"inconclusive: 50.7 µM [cytotoxic, single point]"
same,Potency,[8],inconclusive: 56.9 µM [cytotoxic]
same,Potency,[18],"inconclusive: 40.3 µM [cytotoxic, partial curve]"
same,Potency,[9],"inconclusive: 0.803 µM [inhibitor, partial curve, poor fit]"
same,Potency,[4],active: 10.1 µM
same,Potency,[12],inactive
Cc1c[nH]c2ccccc12,Potency,[2],"inconclusive: 0.239 µM [cytotoxic, single point]"
same,Potency,[8],inactive
same,Potency,[9],inactive
N=C(N)c1ccc(OCCCCCOc2ccc(C(=N)N)cc2)cc1,Potency,[5],inactive
same,Potency,[13],"inactive and inconclusive: 7.5 nM [cytotoxic, full curve, poor fit]"
same,"activity change, negative = inhibition",[7]; [19],inconclusive: -0.177%
same,"activity change, negative = inhibition",[7]; at 61 µM (top of the series),inactive: -21.1% and inactive: -16.9%
same,Potency,[17],"inconclusive: 48.8 µM [cytotoxic, partial curve] and inconclusive: 7.42 µM [cytotoxic, partial curve, poor fit]"
same,Potency,[15],"inconclusive: 12.2 µM [cytotoxic, partial curve, poor fit] and inconclusive: 26.8 µM [cytotoxic, single point]"
same,Potency,[2],inactive
same,Potency,[3],"inconclusive: 24.2 µM [inhibitor, full curve] and inconclusive: 23.2 µM [inhibitor, full curve]"
